# Test results from PubChem BioAssay AID504706 (National Center for Advancing Translational Sciences (NCATS), 2011).
# Out of some 320,000 compounds screened, about 200 (0.062%) were called active. The inconclusive results got no clear call from the source; some entries with a clear call stand among them for comparison. Calls follow the shape of the dose curve; as a rule, active = well fitted activation curve with a large enough effect; inconclusive = small, poorly fitted or top-dose-only effect; inactive = no such curve, though single readings can be large or run the other way. No potency is given beside an inconclusive call; the fits are too rough.
# Test: qHTS assay for re-activators of p53 using a Luc reporter; also: nearly all actives have a fitted effect of over 45% in size
# Settings: H1299 p53-A138V BP100-luciferase reporter, luminescence, 24 h; series mostly up to 92.2 µM
# Method in brief: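 H1299 (p53-null), stable ts p53-A138V + BP100-Luc; 1000 cells/well, Opti-MEM/10% FBS; cpd 4 pt, 1:5; 24 h, 37 deg C, 5% CO2; detection reagent 10 min RT; luminescence.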
# Potency is read from the fitted curve at half-maximal effect; tags tell the direction and shape of the fitted curve.
row,SMILES,Potency
1,O=C(Cc1ccc(Br)cc1)N1CCCCCC1,"inconclusive [activator, full curve, poor fit]"
2,COc1cc(CNCCO)ccc1OCC(=O)Nc1ccc(Br)cc1,"inconclusive [activator, partial curve, poor fit]"
3,O=C(Nc1cccc([N+](=O)[O-])c1)c1[nH]ncc1Cl,"inconclusive [activator, partial curve, poor fit]"
4,Cc1ccc(N=C/C(C(=O)C(F)(F)F)=C(\O)c2cccs2)cc1,inactive
5,Cc1cccc(/C=N/NC(=O)c2ccncc2)n1,inactive
6,CC(C)NCc1c(O)c(Br)cc2oc3c(c12)CCCC3,"inconclusive [activator, single point]"
7,CCc1ccc(/C=C2/SC(=S)N(CCC(=O)NCCCN3CCOCC3)C2=O)cc1,"inconclusive [activator, partial curve, poor fit]"
8,CC(=O)c1cccc(OCc2cc(C(=O)N3C[C@H]4CC[C@H]3C4)no2)c1,"inconclusive [activator, partial curve, poor fit]"
9,CCc1ccc(C(=O)N2CCCC2)s1,inactive
10,O=C(NCc1ccc2c(c1)OCO2)c1cnc2n(c1=O)CCS2,inactive
11,O=C(Nc1ccc2[nH]c3c(c2c1)CCCC3)c1ccco1,"inconclusive [activator, single point]"
12,Cc1ccc(C(=O)O/N=C(\N)c2ccc(Br)cc2)cc1,"inconclusive [activator, partial curve, poor fit]"
13,COc1cccc(C(=O)NNC(=O)C(=O)Nc2ccc(C)cc2)c1,"inconclusive [activator, partial curve, poor fit]"
14,CCn1nnnc1SCC(=O)N(C1CCCCC1)C1CCCCC1,inactive
15,CC(=O)c1ccc(-c2ccc(C(=O)Nc3nc(-c4ccccn4)cs3)o2)cc1,"inconclusive [activator, partial curve, poor fit]"
16,O=C(N/N=C/c1ccccn1)c1ccc(N/N=C/c2ccccn2)cc1,inactive
17,CCSc1nnc2c(n1)[nH]c1c(C)cccc12,"inconclusive [activator, partial curve, poor fit]"
18,N/C(=N\OC(=O)COc1ccc(Br)cc1Cl)c1ccccn1,"inconclusive [activator, full curve, poor fit]"
19,O=C1/C(=C/N(C(=O)c2ccco2)c2ccc(Cl)cc2)Sc2ccccc21,active: 28.2 µM
20,CS(=O)(=O)c1ccc2nc(NC(=O)CCNC(=O)c3ccccc3Cl)sc2c1,"inconclusive [activator, partial curve, poor fit]"
21,CC(C)(C)SCCNC(=O)Nc1ccccc1,"inconclusive [activator, partial curve]"
22,CN(C(=S)NC(=O)C12CC3CC(CC(C3)C1)C2)c1ccc(O)cc1,"inconclusive [activator, partial curve, poor fit]"
23,NS(=O)(=O)c1ccc(N/N=C/C=C/c2ccccc2[N+](=O)[O-])cc1,"inconclusive [activator, partial curve, poor fit]"

row,SMILES,Potency
1,Cc1cccc(NC(=O)c2ccc(S(=O)(=O)NCc3ccco3)cc2)n1,"inconclusive [activator, partial curve, poor fit]"
2,N/C(=N\N=C\c1ccc2c(c1)OCO2)c1nonc1N,"inconclusive [activator, partial curve, poor fit]"
3,O=C(O)c1cccc(N2CCCC2=O)c1,inactive
4,COc1ccccc1N1CCN(S(=O)(=O)c2ccc(-c3ccc(=O)[nH]n3)o2)CC1,inactive
5,COc1cc(N/N=C/c2ccccc2O)ncn1,"inconclusive [activator, full curve, poor fit]"
6,CN1CCN(c2ccc(NC(=O)c3ccc(Br)o3)cc2)CC1,"inconclusive [activator, partial curve, poor fit]"
7,CCOC(=O)C1CCN(C(=O)Nc2ccc3c(c2)nc(C)n3C)CC1,"inconclusive [activator, partial curve, poor fit]"
8,O=C1NN(c2ccccc2)C(=O)C2C3C=CC(C4CC34)C12 (stereo not drawn),inactive
9,COc1ccc(C(=O)Nn2cnc3scc(-c4cccs4)c3c2=O)c(O)c1,"inconclusive [activator, partial curve, poor fit]"
10,Cc1ccc(C)c(C(=O)O/N=C(\N)c2ccc(Br)cc2)c1,"inconclusive [activator, full curve, poor fit]"
11,CCOC(=O)c1c(C)[nH]c(C(=O)C(C)OC(=O)c2cnc(C)cn2)c1C (stereo not drawn),"inconclusive [activator, partial curve, poor fit]"
12,CC(C)OC(=O)c1ccc2nc3ccccc3nc2c1,"inconclusive [activator, full curve, poor fit]"
13,CC1CC(C)CN(C(=O)COC(=O)c2c[nH]c3ccccc23)C1 (stereo not drawn),"inconclusive [activator, single point]"
14,CC1CCC(NC(=O)c2ccc3snnc3c2)CC1 (stereo not drawn),"inconclusive [activator, partial curve, poor fit]"
15,COc1ccccc1C(=O)N/N=C(\C)c1ccc(NC(=O)Cc2ccccc2)cc1,"inconclusive [activator, partial curve, poor fit]"
16,CN(CC(=O)Nc1ccccc1Cl)C(=O)COC(=O)Cc1c(F)cccc1Cl,inactive
17,CCOc1ccc(C2=NNC(c3cccs3)=Nc3ccc(OC)cc32)cc1OCC,"inconclusive [activator, single point]"
18,C/C(=N\NC(=O)c1c[nH]c2ccccc12)c1ccco1,"inconclusive [activator, partial curve, poor fit]"
19,Cc1ccc2nc3c(cc(C(=O)NCc4ccco4)c(=N)n3Cc3ccco3)c(=O)n2c1,inactive
20,COc1cc(CNCc2ccco2)ccc1OCc1ccccc1,"inconclusive [activator, partial curve, poor fit]"
21,CCCOC(=O)c1ccc(NC(=O)C(=O)NCC2CCCO2)cc1 (stereo not drawn),"inconclusive [activator, partial curve, poor fit]"
22,O=C(CCCC(=O)N1CCN(c2ccccc2F)CC1)N1CCN(c2ccccc2F)CC1,inactive
23,Cc1ccc(C(=O)NCCc2c[nH]c3ccccc23)s1,"inconclusive [activator, partial curve, poor fit]"

row,SMILES,Potency
1,CN(CC(=O)Nc1cc(S(=O)(=O)N2CCCCCC2)ccc1Cl)Cc1ccc2c(c1)OCO2,inactive
2,N#C/C(=C\c1ccco1)c1nc2ccccc2s1,"inconclusive [activator, partial curve, poor fit]"
3,CCC(C)NC(=O)CCn1c(-c2ccccc2)cc(C(C)=O)c1C (stereo not drawn),inactive
4,O=C(CSc1nnc(NC(=O)c2ccccc2Cl)s1)Nc1ccc2c(c1)oc1ccccc12,"inconclusive [activator, partial curve, poor fit]"
5,COc1cccc(NC(=O)COC(=O)c2c(NC(C)=O)sc(C)c2C)c1,"inconclusive [activator, single point]"
6,O=C(COc1cccnc1[N+](=O)[O-])Nc1cc(Cl)ccc1Cl,"inconclusive [activator, full curve, poor fit]"
7,O=C(CCc1ccccc1)Nc1ccccc1F,"inconclusive [activator, partial curve, poor fit]"
8,COc1ccc(S(=O)(=O)NC(C)C(=O)N2CCCC2)cc1C (stereo not drawn),inactive
9,Cc1nc2ccccn2c1C(=O)N/N=C/c1ccc(CNC(=O)C(=O)Nc2ccccc2)o1,inactive
10,O=C(CSc1nnc2ccccn12)N1CCc2ccccc21,"inconclusive [activator, full curve, poor fit]"
11,O=C(CSc1nnc(NC(=O)c2ccccc2F)s1)NCC1CCCO1 (stereo not drawn),"inconclusive [activator, single point]"
12,Cc1cccc(C(=O)NNC(=S)NC(=O)c2cccs2)c1,"inconclusive [activator, partial curve, poor fit]"
13,CCCc1cc(C(=O)Nc2cc(OC)ccc2OC)cs1,inactive
14,COc1cccc(/C=N/Nc2cc(Cl)nc(C)n2)c1O,inactive
15,COc1ccc(/C=C/C(=O)c2ccc(Cl)s2)cc1O,"inconclusive [activator, partial curve]"
16,COc1ccc(Cl)cc1NC(=O)CN(C)C(=O)c1cc2c(s1)CCCC2,inactive
17,COc1ccc2nc(NC(=O)c3cc(S(=O)(=O)N4CCOCC4)ccc3C)sc2c1,inactive
18,Clc1ccc(-c2csc(N3CCC(c4ccccc4)C3)n2)cc1 (stereo not drawn),"inconclusive [activator, partial curve, poor fit]"
19,Cc1cc(NS(=O)(=O)c2ccc(NC(=S)NC(=O)c3ccc(C(C)(C)C)cc3)cc2)no1,"inconclusive [activator, partial curve, poor fit]"
20,Cc1ccc(N2C(S)=C(C#N)C(=O)NC23CCCCC3)cc1,"inconclusive [activator, partial curve, poor fit]"
21,N#CCCN(C(=O)Cn1nc(C(=O)O)c2ccccc2c1=O)c1ccccc1,inactive
22,CC(C)(C)OC(=O)N/N=C\c1ccc(OC(=O)c2cccs2)cc1,"inconclusive [activator, partial curve, poor fit]"
